Data published in paper PMC4695389, “Non-classical amine recognition evolved in a large clade of olfactory receptors” (eLife, 2015).

Key:
TAAR12h D^3.32A mutant = type: cell-based, zebrafish
TAAR13c^D202A = target: T1, TAAR13c^D202A (Danio rerio, UniProt Q5QNP2, D202A); type: cell-based; conditions: cadaverine up to 1 mM
T1 construct: expressed in transfected cells; host or cells: HEK-293
T1 sequence (Q5QNP2 1-341 D202A): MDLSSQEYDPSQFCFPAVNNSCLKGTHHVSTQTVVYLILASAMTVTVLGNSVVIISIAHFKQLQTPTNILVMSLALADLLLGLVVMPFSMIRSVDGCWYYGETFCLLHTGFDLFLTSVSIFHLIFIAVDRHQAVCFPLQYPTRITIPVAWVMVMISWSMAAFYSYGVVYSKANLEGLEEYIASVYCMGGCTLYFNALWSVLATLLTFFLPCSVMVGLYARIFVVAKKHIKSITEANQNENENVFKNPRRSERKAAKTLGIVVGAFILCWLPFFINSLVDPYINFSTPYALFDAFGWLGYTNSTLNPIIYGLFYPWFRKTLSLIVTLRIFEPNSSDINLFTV

[1] = target: T2, HTR6 double mutant (D^3.32A; A^5.42D) (Mus musculus, UniProt Q9R1C8, A192D/D106A); type: cell-based; conditions: ligands 0, 10 or 100 μM
T2 construct: expressed in transfected cells; host or cells: HEK-293
T2 sequence (Q9R1C8 whole entry D106A/A192D): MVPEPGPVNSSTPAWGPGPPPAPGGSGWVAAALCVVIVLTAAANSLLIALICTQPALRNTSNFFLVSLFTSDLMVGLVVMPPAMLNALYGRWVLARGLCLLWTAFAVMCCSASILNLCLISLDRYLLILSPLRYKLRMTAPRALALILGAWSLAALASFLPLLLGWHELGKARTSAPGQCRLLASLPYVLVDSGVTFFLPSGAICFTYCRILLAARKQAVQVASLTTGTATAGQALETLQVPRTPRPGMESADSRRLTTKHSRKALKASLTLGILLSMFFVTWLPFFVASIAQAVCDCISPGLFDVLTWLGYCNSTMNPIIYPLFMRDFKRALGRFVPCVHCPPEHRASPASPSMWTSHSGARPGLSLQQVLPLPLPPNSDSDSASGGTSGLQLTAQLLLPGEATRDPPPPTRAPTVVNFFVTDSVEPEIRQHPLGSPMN

TAAR10a D^3.32A mutant = assay: Cre-Seap reporter gene assay, TAAR10a D^3.32A mutant; type: cell-based, zebrafish

NCCc1ccccc1 [2-phenylethylamine]
response of TAAR12h with charge-neutralizing mutation of Asp^3.32 (TAAR12h D^3.32A mutant): completely eliminated responses

COc1cc(CCN)ccc1O [3-methoxytyramine]
activation of TAAR13c D202A mutant (TAAR13c^D202A): agonist

NCCO [ethanolamine]
recognition by HTR6 double mutant [1]: recognized

NCCc1c[nH]c2ccc(O)cc12 [serotonin]
recognition by HTR6 double mutant [1]: no longer recognized | response of TAAR10a with charge-neutralizing mutation of Asp^3.32 (TAAR10a D^3.32A mutant): completely eliminated responses
